# Screen size: about 360,000 compounds; about 11,000 (3.1%) were called active. Inconclusive results, whose numbers are uncertain, are shown with a selection of clear calls. Calls follow the shape of the dose curve; as a rule, active = well fitted inhibition curve with a large enough effect; inconclusive = small, poorly fitted or top-dose-only effect; inactive = no such curve, though single readings can be large or run the other way. No potency is given beside an inconclusive call; the fits are too rough.
# Target: Schistosoma mansoni thioredoxin glutathione reductase (TGR) (UniProt Q962Y6)
# Assay: qHTS Assay for the Inhibitors of Schistosoma Mansoni Peroxiredoxins; also: nearly all actives have a fitted effect of over 60% in size
# Settings: purified TGR, DTNB reduction, TNB absorbance 405 nm; activity change, negative = inhibition: at 114 µM (top of the series) unless noted
# Outline: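 First, TGR (20 nM dispensed) and NADPH were mixed with compound. Second, a 15 min room-temperature incubation followed. Third, further NADPH and then DTNB were added to start the reaction. Finally, TNB absorbance was monitored kinetically.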
# % is scaled to controls: 0 for no effect and ±100 for the full control effect; potency is read from the fitted curve at half-maximal effect; tags tell the direction and shape of the fitted curve.
SMILES,"activity change, negative = inhibition",Potency
O=C(Nc1ccc(N2CCN(C(=O)c3ccco3)CC2)cc1)c1ccc(Br)cc1,inactive: -0.278%,–
COc1ccc(C(=O)OCCc2sc[n+](CC(=O)c3ccccc3)c2C)cc1,–,"inconclusive [inhibitor, partial curve, poor fit]"
CCC1CCCCN1CCCNC(=O)c1ccc(CS(=O)(=O)Cc2ccccc2F)o1 (centres undefined),–,"inconclusive [inhibitor, partial curve]"
CCn1cc(CNC(=O)CC2C(=O)NCCN2CC(c2ccccc2)c2ccccc2)cn1 (centres undefined),–,"inconclusive [inhibitor, partial curve]"
Cc1csc(=O)n1CCC(=O)OCC(=O)Nc1ccc(C(N)=O)cc1,–,"inconclusive [inhibitor, partial curve]"
CN(Cc1nc(-c2ccccc2)no1)C1CCOCC1,–,"inconclusive [inhibitor, partial curve]"
CC(C)(C)c1ccc(NNC(=O)C2CCC2)cc1,–,active: 44.7 µM
COc1ccc(C(=O)Nc2nnc(-c3ccccc3)o2)cc1OC,–,"inconclusive [inhibitor, single point]"
COCCN1CCN(C(=O)c2ccc3nc(Cc4ccc(OC)c(OC)c4)oc3c2)CC1,–,"inconclusive [inhibitor, partial curve, poor fit]"
O=C(NCC(c1cccs1)S(=O)(=O)c1cccs1)c1ccc(F)c(F)c1 (centres undefined),–,"inconclusive [inhibitor, full curve]"
COc1ccc2[nH]c(=O)c(CN(C3CCCCC3)C(c3nnnn3Cc3ccco3)C(C)C)cc2c1 (centres undefined),–,active: 12.6 µM
Cc1cc(F)ccc1S(=O)(=O)N(C(=O)c1ccncc1)c1ccc(OC(=O)c2ccncc2)cc1,inactive: 45.4%,–
O=C(O)CCc1cc(I)c(Oc2ccc(O)c(I)c2)c(I)c1,–,"inconclusive [inhibitor, partial curve]"
CCOC(=O)c1ccc(NC(=O)C2=C(C)Nc3nc(CCCO)nn3C2c2cccc(C)c2)cc1 (centres undefined),–,"inconclusive [inhibitor, full curve, poor fit]"
O=C(N/N=C/c1ccc([N+](=O)[O-])o1)C1CC1,–,"inconclusive [inhibitor, full curve]"
COc1cccc(OC)c1C(=O)N=c1sc2cc(S(C)(=O)=O)ccc2n1C,–,"inconclusive [inhibitor, single point]"
Cc1ccc(NN2C(=O)C=C(c3ccccc3)C2=O)cc1,–,"inconclusive [inhibitor, full curve]"
COc1ccc(NC(=O)COC(=O)c2ccc([N+](=O)[O-])o2)cc1Cl,–,active: 25.1 µM
O=C(Nc1ccccc1-c1ccccc1NC(=O)c1ccco1)c1ccco1,–,"inconclusive [inhibitor, full curve, poor fit]"
COc1cc(O)c(C(CC(=O)N2CCOCC2)c2cc(OC)c(OC)c(OC)c2)c(OC)c1 (centres undefined),–,"inconclusive [inhibitor, full curve]"
O=C1/C(=C\c2ccco2)SC(=S)N1Cc1ccccc1,–,"inconclusive [inhibitor, partial curve, poor fit]"
CN(CC1CCOCC1)C(=O)CC1C(=O)NCCN1Cc1ccccc1F (centres undefined),–,"inconclusive [inhibitor, partial curve]"
O=C1NC(=O)N(c2ccccc2)C(=O)/C1=C/c1ccc2c(c1)Cc1ccccc1-2,–,"inconclusive [inhibitor, full curve, poor fit]"

SMILES,"activity change, negative = inhibition",Potency
COc1ccc(C(=O)n2nc(-c3ccco3)nc2N)cc1OC,–,"inconclusive [inhibitor, full curve, poor fit]"
Fc1cccc(CN2CCCCCCC2)c1,–,"inconclusive [inhibitor, single point]"
Cc1ccc(N2CCN(S(=O)(=O)c3nnc(NC(=O)c4ccccc4)s3)CC2)cc1,–,inactive
COC(=O)C(C)N1CCC(=O)c2ccccc2S1(=O)=O (centres undefined),–,"inconclusive [inhibitor, full curve]"
CCC(Oc1nc2ccccc2nc1-c1ccccc1NC(C)=O)C(=O)c1ccccc1 (centres undefined),inactive: 9.43%,–
COc1ccc(OC(=O)Nc2ccc([N+](=O)[O-])cc2OC)cc1,–,"inconclusive [inhibitor, partial curve]"
Cc1ccc(NC(=O)c2cccc3c(=O)c4c([nH]c23)CCCC4)c(C)c1,inactive: 3.77%,–
CCOC(=O)Cn1c(=O)oc2cc(S(=O)(=O)N3CCN(c4cccc(Cl)c4)CC3)ccc21,inactive: -29.4%,–
COc1ccc(-c2cccc(C(=O)Nc3cccc(C(=O)O)c3)c2)cc1,inactive: -0.0378%,–
COC(=O)CN1C(=O)CSc2ccc(S(=O)(=O)Nc3ccc(F)c(Cl)c3)cc21,inactive: -2.49%,–
CNC(=S)N(C)CCc1cc2c(c(OC)c1C=C1C(=O)NC(=O)NC1=O)OCO2,–,"inconclusive [inhibitor, full curve, poor fit]"
O=C(O)c1ccc(Cn2cc(/C=C\[N+](=O)[O-])c3ccccc32)o1,–,active: 3.16 µM
Cc1cc(Nc2ccccc2Cl)n2nc(-c3ccco3)nc2n1,–,"inconclusive [inhibitor, partial curve]"
COc1cccc(NC(=O)N(Cc2cn(C)c3ccccc23)C2CCCCC2)c1,–,"inconclusive [inhibitor, single point]"
O=C(N/C(=N\O)c1ccccc1)Nc1ccc(Cl)cc1,inactive: -0.0672%,–
Cc1cccc(OCCn2c(-c3ccco3)nc3ccccc32)c1,–,"inconclusive [inhibitor, partial curve]"
CCOC(=O)c1c(NC(=O)CSc2ncn[nH]2)sc(C(C)=O)c1C,–,"inconclusive [inhibitor, full curve, poor fit]"
COc1ccc(CN2CCNC(=O)C2CC(=O)NC2CCOCC2)c(F)c1 (centres undefined),–,"inconclusive [inhibitor, partial curve]"
COc1ccc(C2NN=C(c3ccc(C)cc3)S2)cc1OC (centres undefined),inactive: -11.2%,–
CC(C)CC1Nc2ncnc(N3CCN(c4ccccc4)CC3)c2N(Cc2ccccc2)C1=O (centres undefined),–,"inconclusive [inhibitor, partial curve]"
COc1ccc(CN2CCNC(=O)C2CC(=O)NCc2cn3ccc(C)cc3n2)c(OC)c1 (centres undefined),–,"inconclusive [inhibitor, partial curve]"
O=C1N/C(=N/S(=O)(=O)c2ccccc2)S/C1=C/c1cccnc1,inactive: -22.9%,–
O=C(COC(=O)c1ccc(Cl)c(S(=O)(=O)N2CCCCC2)c1)NCc1ccco1,–,"inconclusive [inhibitor, partial curve]"

SMILES,"activity change, negative = inhibition",Potency
CCCCN(CC)CCCNC(=O)c1cc2cc3ccc(C)cc3nc2o1,inactive: -21.3%,–
Cc1ccc(C)c(N2CCN(C(=O)c3ccc(CS(=O)(=O)c4ccccc4C)o3)CC2)c1,–,active: 25.1 µM
O=C(CSc1ccc2nnc(-c3ccncc3)n2n1)NCc1ccco1,–,active: 3.16 µM
CC(C)(C)c1ccc(OCC(=O)NCc2ccco2)c(Br)c1,–,active: 10 µM
COC(=O)C1=C(C)OC(N)=C(C#N)C1c1ccc(OC)c(CSc2ccccn2)c1 (centres undefined),–,"inconclusive [inhibitor, partial curve]"
COC(=O)c1scc(-c2ccc(C)cc2)c1S(=O)(=O)Nc1ccc(OC(F)(F)F)cc1,–,"inconclusive [inhibitor, single point]"
COc1ccc(-c2nc3ccccc3c(=O)n2CC(C)C)cc1,–,"inconclusive [inhibitor, partial curve, poor fit]"
Cc1cccn2c(=O)c3cc(C#N)c(=NC(=O)c4ccncc4)n(CCCOC(C)C)c3nc12,–,"inconclusive [inhibitor, partial curve]"
O=C(CCS(=O)(=O)c1cccc2nonc12)N1CCN(c2ccc(F)cc2)CC1,–,"inconclusive [inhibitor, partial curve]"
C/C(=N\NS(=O)(=O)c1c(C)cc(C)cc1C)c1ccncc1,–,"inconclusive [inhibitor, full curve, poor fit]"
CC(NC(=O)CNC(=O)c1ccccc1Br)c1cccs1 (centres undefined),inactive: 6.53%,–
C(/C=C/c1ccco1)=N/N1CCN(c2ccccc2)CC1,–,"inconclusive [inhibitor, single point]"
COc1cc(C(=O)OCC(=O)Nc2ccc(N3CCOCC3)cc2)ccc1OCC(C)C,–,active: 50.1 µM
CCn1c(SCC(=O)Nc2sc3c(c2C#N)CCCC3)nnc1-c1ccco1,–,"inconclusive [inhibitor, partial curve, poor fit]"
Cc1cc(C)n(-c2ccc(NC(=O)C3CCN(Cc4ccc(C)o4)CC3)cc2)n1,–,"inconclusive [inhibitor, full curve]"
CC1(C)CC(=O)C(C=NC2CC(C)(C)NC(C)(C)C2)=C(O)C1,–,"inconclusive [inhibitor, single point]"
Cc1ccc(S(=O)(=O)/N=C2/NC(=O)/C(=C\c3cc(Br)cc(Br)c3O)S2)cc1,–,active: 28.2 µM
O=C(N/N=C/c1ccc[nH]1)c1cccnc1,inactive: 0%,–
COCCn1c(SCC(=O)N(C(C)C)C(C)C)nnc1-c1cc2ccccc2cc1O,–,"inconclusive [inhibitor, single point]"
O=C(CSc1nnc2scc(-c3ccc(Cl)cc3)n12)Nc1ccccc1F,inactive: 1.99%,–
O=C(Cc1c(F)cccc1Cl)Nc1nccs1,–,"inconclusive [inhibitor, full curve, poor fit]"
N/C(=N\OC(=O)COc1ccccc1)c1cccnc1,inactive: 16.2%,–
CC1CCN(C(=O)c2ccc(S(=O)(=O)Cc3cc(F)ccc3F)c([N+](=O)[O-])c2)CC1,–,"inconclusive [inhibitor, full curve, poor fit]"

# From PubChem BioAssay AID485364 (National Center for Advancing Translational Sciences (NCATS), 2010)
